Variants at the background level are over-represented here.
B1: TPR 5TU (parent)
chain: GGAUCUUCUCGAUCUAACAAAAAAGACAAAUCUGCCACAAAGCUUGAGAGCAUCUUCGGAUGCAGAGGCGGCAGCCUUCGGUGGCGCGAUAGCGCCAACGUUCUCAACUAUGACACGCAAAACGCGUGCUCCGUUGAAUGGAGUUUAUCAUG

Variants of: B1
Experiment: polymerase ribozyme fitness, log enrichment relative to wild type (log ratio); higher = more active; in vitro selection for triplet polymerase activity
How it was run: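 Input and output libraries were sequenced on Illumina after a single in vitro selection round, run in triplicate on PCR-built, transcribed mutant libraries of each subunit of a heterodimeric triplet polymerase ribozyme. Selection annealed libraries to a biotinylated primer, the partner subunit and triplets, incubated them frozen at −7 °C, then gel-excised extended constructs for streptavidin-bead capture and RT-PCR. Genotypes with ≥10 input reads and ≥1 read per output were kept. Fitness is the logarithm, taken in base 2, of genotype enrichment divided by wild-type enrichment, using inverse-variance-weighted replicate averages.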

Point of comparison: GGAUCUUCUCGAUCUAACAAAAAAGACAAAUCUACCACAAAGCUUGAGAGCAUCUUCGGAUGCAGAGGCGGCAGCCUUCGGUGGCGCGAUAGCGUCAACGUUCUCAACUAUGACACGCAAAACGCGUGCUCCGUUAAAUGGAGUUUAUCAUG, “polymerase ribozyme fitness (log ratio)” value -0.0966. Against it:
- GGAUCUUCUCGAUCUAACAAAAAAGACAAAUCUACCACAAAGCUUGAGAGCAUCUUCGGAUGCAGAGGCGGCAGCCUUUGGUGGCGCGAUAGCGCCAACGUUCUCAACUAUGACACGCAAAACGCGUGCUCCGUUGAAUGGAGAUUAUCAUG — lower, ≤ -4.2
- GGAUCUUCUCGAUCUAACAAAAAAGACAAAUCUAUCACAAAGCUUGAGAGCAUCUGCGGAUGCAGAGGCGGCAGCCUUCGGUGGCGCGAUAGCGUCAACGUUCUCAACUAUGACAUGCAAAACGCGUGCUCCGUUGAAUGGUGUUUAUCAUG — lower, ≤ -4.2
- GGAUCUUCUCGAUCUAACAAAAAAGACAAAUCGGCCACAAAGCUUGAGAGCAUCUACGGAUGCAGAGGCGGCAGCCUUCGGUUGCGUGAUAGCGCCAACGUGCUCAACUAUGACACGCGAAACGCGUGCUCCGUUGAAUGGAGUUUAUCAUG — lower, ≤ -4.2
- GGAUCUUCUCGAUCUAACAAAAAAGACAAAUCUCCUACAAAGCUUGAGAGCAUCUUCGGAUGCAGAGGCGGCAGCCUUCGGUGGCGCGAUAGCGCCAACGUUCUCAACUACGACACGCGAAACGCGUGCUCCGUUGAAUGGAGUUUAUCAUG — lower, ≤ -4.2
- GGAUCUUCUCGAUCUAACAAAAAAGACAAAUCUCCCACAAAGCUUGAGAGCAUCUUCGGAAGCAGAGGCGGCAGCCUUCGGUGGCGCGAUAGGGCCAACGUUCUCAACUAUGACACGCAAAACGCGUGCUCCGUUGGAUGGAGUUUAUCAUG — lower, ≤ -4.2
- GGAUCUUCUCGAUCUAACAAAAAAGACAAAUCUCCCACAAAGCUUGAGACCAUCUUCGGAUGCAGAGGCGGCAGCCUUCGGUGGCGCGAUAGCGCCAACGGUCUCAACUAUGACAGGCAAAACGCGUGCUCCGUUGAAUGGAGUUUCUCAUG — lower, ≤ -4.2
- GGAUCUUCUCGAUCUAACAAAAAAGACAAAUCUACCACAAAGCUUGAGAGCAUCUACGGAUGCAGAGGCGGCAGCCUUCGGUGGGGCGAUGGCGCCAACGGUGUCAACUAUGACACGCAAAACGCGGGCUCCGUUGAAUGGAGUCUAUCAUG — lower, ≤ -4.2
- GGAUCUUCUCGAUCUAACAAAAAAGACAAAUCUCCCACCAAGCUUGAGAGCAUCAUCGGUUGCAGAGGCGGCUGCCUUCGGUGGCGCGAUAGCGCCAACGUUCUCAACUAUGACACGCAAAACGCGUGCUCCGUUGAAUGGAGUUGAUCAUG — lower, ≤ -4.2
- GGAUCUUCUCGAUCUAACAAAAAAGACAAAUCUACCACAAAGUUUGAGAGCAUCUUCGGAUGCAGAGGGGGCAGCCUUCGGUGGCGUGAUAGCGCCAACAUUCUCAACUAUGACACGUAAAACGCGUGCUCCGUUGAAUGGAGUUUAUCAUG — lower, ≤ -4.2
- GGAUCUUCUCGAUCUAACAAAAAAGACAAAUCGGCCACAAAGCUUGAGAGCAUCUUCGGAUGCAGAGGCGGCAGCCUUCGGUGGCGCGAUAACGCCAACGUUCUCAACUAUGACACGCAAAACGCGUGCUCCGUUGAAUGGAGUUUAUCAUG — lower, ≤ -4.2
- GGAUCUUCUCGAUCUAACAAAAAAGACAAAUCUACGACAAAGCUUGAGAGCAUCUUCGGAUGCAGAGGCGGCAGCCUUCGGUGGCGCGAUAGCGCCAACGUUCUCAACUAUGACACGCAAAACGCGGGCUCCGUUGAAUGGAGUUUACCAUG — lower, ≤ -4.2
- GGAUCUUCUCGAUCUAACAAAAAAGACAAAUCGGCCACAAAGCUUGAGAGCAUCUUCGGAUGCAGAGGCGGCAGCCGUCGGUGGGGCGAUAGCGCCAACGUUCUCAACUAUGACACGCAAAACGCGUGCUCCGUUGAAUGGAGUUUAUCAUG — lower, ≤ -4.2
- GGAUCUUCUCGAUCUAACAAAAAAGACAAAUCUACCACAAAGCUUGAGUGCAUCUUAGGAAGCAGAGGCGGCAGCCUUCGGUGGCGCGAUAGCGCUAGCGUUCUCAACUAUGACACGCAAAACGCGUGCUCCGUUGAAUGGUGUUUAGCAUG — lower, ≤ -4.2
- GGAUCUUCUCGAUCUAACAAAAAAGACAAAUCUUCCACAGAGCUUGAGAGCAUCUUCGGAUGCAGAGGUGGCAGCCUUCUGUGGCGCGAUAGCGCCAAUGUUCUCAGCUAUGACACGCAAAACGCGUGCUCCGUUGAAGUGAGUUUACCAUG — lower, ≤ -4.2
- GGAUCUUCUCGAUCUAACAAAAAAGACAAAUCUACCACAAAGCUUGAGAGCAUCUUCGGAUGCAGAGGCGGCAGCCUUCGGUGGCGUGUUAGCGCCAACAUUGUCAUCUAUGACACGCAAAACCCGUGCUCCGUGGAAUACAGUUUAUCAUG — lower, ≤ -4.2
- GGAUCUUCUCGAUCUAACAAAAAAGACAAAUCUCCCACAAAGCGUGAGAGCAUCUUCGGAAGCAGAGGCGGCAGCCUUCAGUGGCGCGAUCGCGCCAACGUUCUCAACUAUGACACGCAAAACGCGUGCUCCGUUGAAUGAAGUUUAUCAUG — lower, ≤ -4.2
- GGAUCUUCUCGAUCUAACAAAAAAGACAAAUCUCCCACAAAGCUUGAGAGCAUCUUCGAAUGCAGAGGCGGCAGCCUUCGGUGGCGCGAUAGCGCCAACGUUCUCAACUAUUACUCGCAAAACGUGUGCUCCGUUGAAUGGAGUUUAUCAUG — lower, ≤ -4.2
- GGAUCUUCUCGAUCUAACAAAAAAGACAAAUCUACCACAAAGCUUGAGAGCAUCUUCGGAUGCAGAGGCGGCAGCCGUCGGUGGCGAGAUCGCGCCAACGUUCUCAAUUAUGACACGCAAAACGCGUGCUCCAUUGAAUGGAGUUUAUCAUG — lower, ≤ -4.2
- GGAUCUUCUCGAUCUAACAAAAAAGACAAAUCUACUACAAAGCUUGAGAGCAUCUUCGGAUGCAGAGGCGGCAGCCUUCGGUGGCGCGAUAGAGCCAACGUUCUCAACUAUGACACGGAAAACGCGUGCUCCGUUGAAUGGUGUUUAUCAUG — lower, ≤ -4.2
- GGAUCUUCUCGAUCUAACAAAAAAGACAAAUCUCCCACAAAGCUUGAGAGCAUCUUCGGAUGCAGAGGCGGCAGCCUUCGGUGGCGCGAUAGCGUCAACGUUCUCAUCUAUGACACGCAAAACGCGUGCUCCGUUGAAUGGAGUUUAACAUG — lower, ≤ -4.2
- GGAUCUUCUCGAUCUAACAAAAAAGACAAAUCUCCCACAAAGCUUGAGAGCAUCGUCGGAUGCAGAGGUGGCAGCCUACGGUGGCGCGAUUGUGCCAACGUUCUCAACUAUGACACGCAAAACGCGUGCUCCGUUGAAUGAAGUUUAUCAUG — lower, ≤ -4.2
- GGAUCUUCUCGAUCUAACAAAAAAGACAAAUCUACCACAAAGCUUGAGAGCAUCUUCCGAUGCAGAGGCGGCCGCCUUCGGUGACGCGAUAGCACCAACGUUCUCAAAUAUGACACGCAAAACGCGUGCUCCGUUGAAUGGAGUUUAUCAUG — lower, ≤ -4.2
- GGAUCUUCUCGAUCUAACAAAAAAGACAAAUCUACCACAAAGCUUGAGAGCAUCUUCGGAUGCAGAGGCGGCAGACUUCGGUGGUGAGAUAGCGCCAACGCUCUCCACUAUGACACGCAAAGCGCGUGCUCCGUUGAAUGGAGUUUAUCAUG — lower, ≤ -4.2
- GGAUCUUCUCGAUCUAACAAAAAAGACAAAUCGGCCACAAAGCAUGAGAGCAUCUUCGGAUGCAGAGGCGGCAGCCUUCGAUGGCGCGAUAGCGCCAACGUUCUCAACUAUGACCCGCAAAACGCGUGCUCCGUUGAAUGGAGAUUAUCAUG — lower, ≤ -4.2
- GGAUCUUCUCGAUCUAACAAAAAAGACAAAUCUACCACAAAGCUUGAGAGCAUCUUAGGAUGCAGAGGCGGCAGCCUUCGGUGGCGUGUUAGCUCAAACGUUCAGAACUUUGACACGCAAAACGCUUGCUCCGUUGAAUGGAGUUUAUCAUG — lower, ≤ -4.2
- GGAUCUUCUCGAUCUAACAAAAAAGACAAAUCUACCACAAAGCUUGAGAGCAUCUUCGGAUGCAGAGGCGGCAGCCUUCGGUGGCGAGAUAGCGCCAACGUUCUCAACUAUGACACGCAAAACGCGUGCUCCGUUGAAUGAAGUUUAUCAUG — lower, ≤ -4.2
- GGAUCUUCUCGAUCUAACAAAAAAGACAAAUCUCCCACAAAGCUUGAGAGCAUCUUCGGAGGCGGAGGCGGCAGCCUUCGGUGGCGCGAUAGUGGCAACGUUCUCAACUAUUACACGCAAAACGCGUGCUCCGUUGAAUGGAGUUUAUCAUG — lower, ≤ -4.2
- GGAUCUUCUCGAUCUAACAAAAAAGACAAAUCUACCACAAAGCUUGAGAGCAUCUUUGGAUGCAGAGGCGGCAGCCUUCGGUGGCUCGAUAGCGCCAAUGUUCUGAAUUAUGACACGCAAAACGCGUGCUCCGUUGAAUGGAGUUUAUCAUG — lower, ≤ -4.2
- GGAUCUUCUCGAUCUAACAAAAAAGACAAAUCUUCCACAGAGCUUGAGAGCAUCUUCGGAUGCAGAGGCGGUAGCCUUCGGUGGCGCGAUAGCGCGAACGUUCUCAACUAUGACACGCAAAACGCGUGCUCCGUUGAAUGGAGUUUAUCAUG — lower, ≤ -4.2
- GGAUCUUCUCGAUCUAACAAAAAAGACAAAUCUACCACAAAGCUUGAGAGCAUCAUCGGAUGCAGAGGCGGCAGCCUUCGGUGGCGCGAUAGCGCCAAUGUUCUCAACUAUAACAUGCAAAACGCGUGCUCCGUUGAAUGGAGUUUAUCAUG — lower, ≤ -4.2
- GGAUCUUCUCGAUCUAACAAAAAAGACAAAUCUCCCACAAAGCUUGAGAGCAUCAUCGGAAGCAGAGGCGGCAGCCUUCGGUGGCGCGAUAGCGCCAACGUUCUCAACUAUGACACGCAAAACGCGUGCUCCGUUGAACGGAGUUUAUCAUG — lower, ≤ -4.2
- GGAUCUUCUCGAUCUAACAAAAAAGACAAAUCUCCCACAAGGCUUGAGAGCAUAUUCGGAUGCAGAGGCGGCAGCCUUCGGUGGCGCGAUAGCGCCAACGUUCUCAACUAUGACACGCAAAACGCGUGCUCCGUCGAAUGGAGUGUAUCAUG — lower, ≤ -4.2
- GGAUCUUCUCGAUCUAACAAAAAAGACAAAUCUCCCACAAAGCUUGUGAGCAUCUUCGUAUGCAGAGGCGGCAGCCUUCGGUGGCGUGAUAGCGCCAAAGUUCUAAACUAUGACACGCAAAACGCUUGCUCCGUUGAAUGGAGUUUAUCAUG — lower, ≤ -4.2
- GGAUCUUCUCGAUCUAACAAAAAAGACAAAUCUACCACAAAGCUUGAGAGCAUCUUCGGAUGCAGAGGCGGCAGCCUUCCGUGGCGCGAUAGCGCCAACGUUCUCAACCGUGACACGCAAAACGCGUGCUCCGUAGAAUGGAGUUUAUCAGG — lower, ≤ -4.2
- GGAUCUUCUCGAUCUAACAAAAAAGACAAAUCGGCCACAAAGCUUGAGAGCAUCGUCGGAUGCAGAGACGGCAGCCUUAGGUGUCGCGAUAGCGCCAACGUUCUCAACUAUGACACGCAAAACGCGUGCUCCGUUUAAUGGAGUUUAUCAUG — lower, ≤ -4.2
- GGAUCUUCUCGAUCUAACAAAAAAGACAAAUCUACCACAAAGCUUGAGAGCAUCUUCGCAUGCAGAGGCGUCAGCCUUCGGUGUCGCGAUAGCGCCAACGUUCUCAACUAUGACAGGCAAAACGCGUGCUCCGUUGAAUGGAGUUUAUCUUG — lower, ≤ -4.2
- GGAUCUUCUCGAUCUAACAAAAAAGACAAAUCUUCCACAGAGCUUGAGAGCAUCGACGGAUGCAGAGGCGGCAGCCUUCGGUGGCGCGAUAGCGCCAACGAGCUCAACUAUGACACGCAAAACGCAUGCUCCGUUGAAUGGAGUUUAUCAUG — lower, ≤ -4.2

From the RNAGym collection of RNA variant scans (doi:10.1073/pnas.2313332121)
